The other results are listed elsewhere or left out.
Tested on: HepG2
Assay: cytotoxicity call (relative viability < 0.9)
Conditions: 10 µM

Row | SMILES | cytotoxicity call
1 | CN(C)CCCC[C@@H]1NC(=O)[C@@H]2C[C@H](C(=O)NCCCCCCNC(=O)CS)[C@H](c3cccc(OCCO)c3)N2C1=O | inactive
2 | COc1ccc(S(=O)(=O)Nc2ccc3c(c2)C(=O)N([C@@H](C)CO)C[C@H](C)[C@H](CN(C)C(=O)Nc2cccc4ccccc24)OCCCC[C@@H](C)O3)cc1 | inactive
3 | CO[C@H]1O[C@H](CO)[C@@H](OC(=O)c2ccc(Br)cc2)[C@@H]2OC(=O)[C@@H](Cc3ccc4ccccc4c3)C/C=C/C[C@H](Cc3ccc4ccccc4c3)C(=O)O[C@@H]12 | inactive
4 | CC(C)CC#Cc1cnc2c(c1)C(=O)N([C@H](C)CO)C[C@H](C)[C@H](CN(C)S(=O)(=O)c1cccs1)O2 | inactive
5 | C[C@@H]1CN([C@@H](C)CO)C(=O)c2cccc(NC(=O)C3CC3)c2O[C@@H]1CN(C)Cc1ccc(Oc2ccccc2)cc1 | inactive
6 | CC(C)NC(=O)Nc1cccc2c1O[C@@H](CN(C)C(=O)NC1CCCCC1)[C@@H](C)CN([C@@H](C)CO)C2=O | inactive
7 | COc1ccc([Si](C)(C)[C@@H]2[C@@H](CC(=O)N(CCO)Cc3ccccc3)O[C@]3(C(=O)N(Cc4ccc(N5C(=O)c6cccc7cccc5c67)cc4)c4ccccc43)[C@H]2C)cc1 | active
8 | CC(C)(C)Cc1ccc(OCCCC(=O)O)c(CC(C)(C)C)c1 | inactive
9 | COc1ccc(S(=O)(=O)N(C)C[C@@H]2Oc3c(NS(=O)(=O)c4ccc(C)cc4)cccc3C(=O)N([C@H](C)CO)C[C@H]2C)cc1 | inactive
10 | O=C(c1cnccn1)N1CCC2(CCCN2)CC1 | inactive
11 | O[C@@H]1[C@@H](O)[C@H](Br)C=C[C@H]1O | inactive
12 | CNC1C(OC2OC(CO)C(N)C(O)C2O)OC2CC(N)C(OC3C(N)CC(N)C(O)C3O)OC2C1O.O=S(=O)(O)O (stereo unspecified) | inactive
13 | CC(=O)NCc1c(I)c(NC(C)=O)c(I)c(C(=O)O)c1I | inactive
14 | C[C@H](CO)N1C[C@H](C)[C@@H](CN(C)S(C)(=O)=O)Oc2ccc(NC(=O)Cc3ccccc3)cc2C1=O | inactive
15 | CN1CCc2c(n[nH]c2CNc2ncccn2)C1 | inactive
16 | C[C@H](CO)N1C[C@H](C)[C@@H](CN(C)C(=O)c2ccccc2)OCCCC[C@H](C)Oc2ccc(NC(=O)Nc3ccccc3)cc2C1=O | inactive
17 | O=C(NC1CCCCC1)N1c2ccccc2C=Cc2ccccc21 | inactive
18 | C[C@H]1CN([C@@H](C)CO)C(=O)c2cccc(NC(=O)c3ccc(-c4nccs4)cc3)c2O[C@@H]1CN(C)C(=O)Nc1ccc2c(c1)OCO2 | inactive
19 | C[C@@H]1CN([C@@H](C)CO)C(=O)c2cc(NC(=O)Nc3ccccc3)ccc2O[C@@H](C)CCCCO[C@H]1CN(C)S(=O)(=O)c1ccccc1 | inactive
20 | C[C@H]1CN([C@@H](C)CO)C(=O)c2cc(NS(=O)(=O)c3ccc(F)cc3)ccc2O[C@@H]1CN(C)Cc1ccc(-c2ccccc2)cc1 | active
21 | Cn1cnc(S(=O)(=O)N2C[C@@H](O)COC[C@H]3O[C@@H](CC(=O)NC4Cc5ccccc5C4)CC[C@@H]32)c1 | inactive
22 | COc1ccc(CN(C)C[C@@H]2Oc3ccc(NC(=O)Nc4ccc(C(F)(F)F)cc4)cc3C(=O)N([C@@H](C)CO)C[C@@H]2C)cc1 | active
23 | COc1ccc2c3c([nH]c2c1)[C@@H](CO)N(C[C@]13CCN(CC1)CC1CCOCC1)S(=O)(=O)c1cn(cn1)C | inactive
24 | Cc1noc(C)c1NC(=O)Nc1cccc2c1O[C@@H](CN(C)S(=O)(=O)c1ccccc1)[C@@H](C)CN([C@@H](C)CO)C2=O | inactive
25 | C1CNCCN1 | inactive
26 | C[C@@H]1CCCCO[C@@H](CN(C)C(=O)C2CCCCC2)[C@H](C)CN([C@@H](C)CO)C(=O)c2cc(NC(=O)Nc3ccc4c(c3)OCO4)ccc2O1 | inactive
27 | C[C@@H]1CN([C@@H](C)CO)C(=O)Cc2cc(NC(=O)Cn3cnnn3)ccc2O[C@H]1CN(C)S(=O)(=O)c1ccc(Cl)cc1 | inactive
28 | C[C@H]1CN([C@@H](C)CO)C(=O)c2cc(N(C)C)ccc2O[C@@H]1CN(C)S(=O)(=O)c1ccc(Cl)cc1 | inactive
29 | C[C@@H]1CN([C@@H](C)CO)C(=O)c2cc(NC(=O)Nc3cccc4ccccc34)ccc2O[C@@H](C)CCCCO[C@H]1CN(C)C(=O)CCCN(C)C | inactive
30 | C[C@@H]1CN([C@@H](C)CO)C(=O)c2cccc(NC(=O)Nc3cccc4ccccc34)c2O[C@H]1CN(C)S(=O)(=O)c1cccs1 | inactive

Tested on: S. aureus RN4220
Assay: growth inhibition call (relative growth <= 0.2)
Conditions: 50 µM

Row | SMILES | growth inhibition call
31 | COc1ccc(CNC(=O)C[C@@H]2CC[C@H]3[C@@H](COC[C@H](O)CN3S(=O)(=O)c3ccc(C)cc3)O2)cc1OC | inactive
32 | C[C@@H]1CCCCO[C@@H](CN(C)C(=O)Nc2ccc(F)cc2)[C@H](C)CN([C@@H](C)CO)C(=O)c2cc(NC(=O)Nc3ccccc3)ccc2O1 | inactive
33 | COc1ccc(S(=O)(=O)N(C)C[C@H]2Oc3ccc(NS(=O)(=O)c4cn(C)cn4)cc3C(=O)N([C@@H](C)CO)C[C@@H]2C)cc1 | inactive
34 | C[C@@H]1CCCCO[C@@H](CN(C)C(=O)C2CCCCC2)[C@@H](C)CN([C@H](C)CO)C(=O)c2cc(NC(=O)Nc3ccc(F)cc3)ccc2O1 | inactive
35 | C[C@@H]1CN([C@H](C)CO)C(=O)Cc2cc(NC(=O)c3ccncc3)ccc2O[C@@H]1CN(C)C(=O)NC1CCCCC1 | inactive
36 | CCCN1C[C@H](C)[C@H](OC)CN(C)C(=O)c2cc(NS(=O)(=O)c3cn(C)cn3)ccc2OC[C@@H]1C | inactive
37 | COc1ccc(C#Cc2cnc3c(c2)C(=O)N([C@H](C)CO)C[C@H](C)[C@H](CN(C)C(=O)CC2CC2)O3)cc1 | inactive
38 | C[C@@H](NC(=O)C[C@H]1CC[C@H](NC(=O)CN2CCOCC2)[C@H](CO)O1)c1ccccc1 | inactive
39 | C[C@@H]1CN([C@@H](C)CO)C(=O)CCCn2cc(nn2)CO[C@H]1CN(C)S(=O)(=O)c1ccc(Oc2ccccc2)nc1 | inactive
40 | COc1ccc(NC(=O)Nc2ccc3c(c2)CC(=O)N([C@H](C)CO)C[C@@H](C)[C@H](CN(C)S(=O)(=O)c2c(C)noc2C)O3)cc1 | inactive
41 | CN(C)CCCC[C@@H]1NC(=O)[C@@H]2C[C@H](C(=O)NCCCCCCNC(=O)CS)[C@H](c3cccc(OCCO)c3)N2C1=O | inactive
42 | COc1ccc(S(=O)(=O)Nc2ccc3c(c2)C(=O)N([C@@H](C)CO)C[C@H](C)[C@H](CN(C)C(=O)Nc2cccc4ccccc24)OCCCC[C@@H](C)O3)cc1 | inactive
43 | CO[C@H]1O[C@H](CO)[C@@H](OC(=O)c2ccc(Br)cc2)[C@@H]2OC(=O)[C@@H](Cc3ccc4ccccc4c3)C/C=C/C[C@H](Cc3ccc4ccccc4c3)C(=O)O[C@@H]12 | inactive
44 | CC(C)CC#Cc1cnc2c(c1)C(=O)N([C@H](C)CO)C[C@H](C)[C@H](CN(C)S(=O)(=O)c1cccs1)O2 | inactive
45 | C[C@@H]1CN([C@@H](C)CO)C(=O)c2cccc(NC(=O)C3CC3)c2O[C@@H]1CN(C)Cc1ccc(Oc2ccccc2)cc1 | inactive
46 | CC(C)NC(=O)Nc1cccc2c1O[C@@H](CN(C)C(=O)NC1CCCCC1)[C@@H](C)CN([C@@H](C)CO)C2=O | inactive
47 | COc1ccc([Si](C)(C)[C@@H]2[C@@H](CC(=O)N(CCO)Cc3ccccc3)O[C@]3(C(=O)N(Cc4ccc(N5C(=O)c6cccc7cccc5c67)cc4)c4ccccc43)[C@H]2C)cc1 | inactive
48 | CC(C)(C)Cc1ccc(OCCCC(=O)O)c(CC(C)(C)C)c1 | active

Row | SMILES | growth inhibition call
49 | COc1ccc(S(=O)(=O)N(C)C[C@@H]2Oc3c(NS(=O)(=O)c4ccc(C)cc4)cccc3C(=O)N([C@H](C)CO)C[C@H]2C)cc1 | inactive
50 | O=C(c1cnccn1)N1CCC2(CCCN2)CC1 | inactive
51 | O[C@@H]1[C@@H](O)[C@H](Br)C=C[C@H]1O | inactive
52 | CNC1C(OC2OC(CO)C(N)C(O)C2O)OC2CC(N)C(OC3C(N)CC(N)C(O)C3O)OC2C1O.O=S(=O)(O)O (stereo unspecified) | active
53 | CC(=O)NCc1c(I)c(NC(C)=O)c(I)c(C(=O)O)c1I | inactive
54 | C[C@H](CO)N1C[C@H](C)[C@@H](CN(C)S(C)(=O)=O)Oc2ccc(NC(=O)Cc3ccccc3)cc2C1=O | inactive
55 | CN1CCc2c(n[nH]c2CNc2ncccn2)C1 | inactive
56 | C[C@H](CO)N1C[C@H](C)[C@@H](CN(C)C(=O)c2ccccc2)OCCCC[C@H](C)Oc2ccc(NC(=O)Nc3ccccc3)cc2C1=O | inactive
57 | O=C(NC1CCCCC1)N1c2ccccc2C=Cc2ccccc21 | inactive
58 | C[C@H]1CN([C@@H](C)CO)C(=O)c2cccc(NC(=O)c3ccc(-c4nccs4)cc3)c2O[C@@H]1CN(C)C(=O)Nc1ccc2c(c1)OCO2 | inactive
59 | C[C@@H]1CN([C@@H](C)CO)C(=O)c2cc(NC(=O)Nc3ccccc3)ccc2O[C@@H](C)CCCCO[C@H]1CN(C)S(=O)(=O)c1ccccc1 | inactive
60 | C[C@H]1CN([C@@H](C)CO)C(=O)c2cc(NS(=O)(=O)c3ccc(F)cc3)ccc2O[C@@H]1CN(C)Cc1ccc(-c2ccccc2)cc1 | inactive
61 | Cn1cnc(S(=O)(=O)N2C[C@@H](O)COC[C@H]3O[C@@H](CC(=O)NC4Cc5ccccc5C4)CC[C@@H]32)c1 | inactive
62 | COc1ccc(CN(C)C[C@@H]2Oc3ccc(NC(=O)Nc4ccc(C(F)(F)F)cc4)cc3C(=O)N([C@@H](C)CO)C[C@@H]2C)cc1 | inactive
63 | COc1ccc2c3c([nH]c2c1)[C@@H](CO)N(C[C@]13CCN(CC1)CC1CCOCC1)S(=O)(=O)c1cn(cn1)C | inactive
64 | Cc1noc(C)c1NC(=O)Nc1cccc2c1O[C@@H](CN(C)S(=O)(=O)c1ccccc1)[C@@H](C)CN([C@@H](C)CO)C2=O | inactive
65 | C1CNCCN1 | inactive
66 | C[C@@H]1CCCCO[C@@H](CN(C)C(=O)C2CCCCC2)[C@H](C)CN([C@@H](C)CO)C(=O)c2cc(NC(=O)Nc3ccc4c(c3)OCO4)ccc2O1 | inactive

Reference: the antibiotic and cytotoxicity screens of Wong et al. (2023)
